# Measurements as given in the supplement of paper PMC10037445.
# Over roughly 2,900 compounds, “NF-kB SEAP reporter activity, fold change vs agonist alone” has its median near 0.99; the highest 2% begin near 2.6. The list shows a part of the results.
# Key:
# RAW-Dual [1] = test: NF-kB SEAP reporter activity, fold change vs agonist alone; higher = enhanced NF-kB activity
# Method in brief: (§1)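 Library stock was pin-tooled at 50 nL into 384-well plates of RAW-Dual macrophages (50,000 cells/well, DMEM), followed 1 h later by a PRR agonist, and the cells were kept at 37 °C, 5% CO2. Supernatant collected after 20 hours was read for IRF by QuantiLuc luminescence and for NF-κB by QuantiBlue absorbance at 620 nm. Reporter activity is fold change over agonist-alone wells, and a well counted as cytotoxic when its IncuCyte confluency was below 70% of agonist controls in both mask sets.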
# RAW-Dual [2] = test: NF-kB SEAP reporter activity, fold change vs agonist alone; cytotoxicity flag (confluency mask): not cytotoxic; higher = enhanced NF-kB activity
# Method in brief: as §1
# RAW-Dual [3] = test: NF-kB SEAP reporter activity, fold change vs agonist alone; cytotoxicity flag (confluency mask): cytotoxic (confluency <70% of control); higher = enhanced NF-kB activity
# Method in brief: as §1
# [4] = library stock concentration (final ~1000-fold dilution): 10 mM, cytotoxicity flag (confluency mask): not cytotoxic, agonist: Imiquimod (TLR7) […]
# [5] = library stock concentration (final ~1000-fold dilution): 10 mM, cytotoxicity flag (confluency mask): not cytotoxic, agonist: MPLA (TLR4) […]
# [6] = agonist: ODN 1826 (TLR9) 0.5 ug/mL
# [7] = agonist: Pam2CSK4 (TLR2/6) 0.1 ug/mL
# [8] = agonist: Pam3CSK4 (TLR2/1) 0.1 ug/mL
compound,measurement,setting,value
CC1=CC2Cc3[nH]c(=O)ccc3C3(C1)NCCCC23 (stereo not drawn),NF-kB SEAP reporter activity,RAW-Dual [1]; [4],0.933
same,NF-kB SEAP reporter activity,RAW-Dual [1]; [5],1.03
CC1=CC2Cc3[nH]c(=O)ccc3C3(C1)NCCCC23 (stereo not drawn) (library stock concentration (final ~1000-fold dilution): 10 mM),NF-kB SEAP reporter activity,RAW-Dual [2]; agonist: LPS (TLR4) 0.1 ug/mL,1.12
same,NF-kB SEAP reporter activity,RAW-Dual [2]; [6],0.952
same,NF-kB SEAP reporter activity,RAW-Dual [2]; [7],1.11
same,NF-kB SEAP reporter activity,RAW-Dual [2]; [8],1.22
COc1cc(C2OCC3C(c4cc(OC)c(OC5OC(CO)C(O)C(O)C5O)c(OC)c4)OCC23)cc(OC)c1OC1OC(CO)C(O)C(O)C1O (stereo not drawn),NF-kB SEAP reporter activity,RAW-Dual [1]; [4],0.977
same,NF-kB SEAP reporter activity,RAW-Dual [1]; [5],0.979
COc1cc(C2OCC3C(c4cc(OC)c(OC5OC(CO)C(O)C(O)C5O)c(OC)c4)OCC23)cc(OC)c1OC1OC(CO)C(O)C(O)C1O (stereo not drawn) (library stock concentration (final ~1000-fold dilution): 10 mM),NF-kB SEAP reporter activity,RAW-Dual [2]; agonist: LPS (TLR4) 0.1 ug/mL,1.18
same,NF-kB SEAP reporter activity,RAW-Dual [2]; [6],0.89
same,NF-kB SEAP reporter activity,RAW-Dual [2]; [7],1.11
same,NF-kB SEAP reporter activity,RAW-Dual [2]; [8],1.5
Nc1ccncc1 (library stock concentration (final ~1000-fold dilution): 10 mM),NF-kB SEAP reporter activity,RAW-Dual [2]; agonist: LPS (TLR4) 0.1 ug/mL,1.08
same,NF-kB SEAP reporter activity,RAW-Dual [2]; [6],0.999
same,NF-kB SEAP reporter activity,RAW-Dual [2]; [7],0.978
same,NF-kB SEAP reporter activity,RAW-Dual [2]; [8],1.08
Nc1ccncc1,NF-kB SEAP reporter activity,RAW-Dual [1]; [5],1.05
CC12CCC3C(CCC4CC(O)CCC43C)C1CCC2=O (stereo not drawn) (library stock concentration (final ~1000-fold dilution): 10 mM),NF-kB SEAP reporter activity,RAW-Dual [2]; agonist: LPS (TLR4) 0.1 ug/mL,0.978
same,NF-kB SEAP reporter activity,RAW-Dual [2]; [6],0.89
same,NF-kB SEAP reporter activity,RAW-Dual [2]; [7],0.966
same,NF-kB SEAP reporter activity,RAW-Dual [2]; [8],1.25
CC12CCC3C(CCC4CC(O)CCC43C)C1CCC2=O (stereo not drawn),NF-kB SEAP reporter activity,RAW-Dual [1]; [4],1.11
same,NF-kB SEAP reporter activity,RAW-Dual [1]; [5],1.22
CCN1CC2(COC)CCC(OC)C34C5CC6(O)C(OC)CC(OC(C)=O)(C5C6C(=O)c5ccc(OC)cc5)C(C(OC)C23)C14 (stereo not drawn),NF-kB SEAP reporter activity,RAW-Dual [1]; [4],0.897
same,NF-kB SEAP reporter activity,RAW-Dual [1]; [5],1.07
CCN1CC2(COC)CCC(OC)C34C5CC6(O)C(OC)CC(OC(C)=O)(C5C6C(=O)c5ccc(OC)cc5)C(C(OC)C23)C14 (stereo not drawn) (library stock concentration (final ~1000-fold dilution): 10 mM),NF-kB SEAP reporter activity,RAW-Dual [2]; agonist: LPS (TLR4) 0.1 ug/mL,1.22
same,NF-kB SEAP reporter activity,RAW-Dual [2]; [6],0.998
same,NF-kB SEAP reporter activity,RAW-Dual [2]; [7],1.36
same,NF-kB SEAP reporter activity,RAW-Dual [2]; [8],1.03
Fc1cc(F)c2c(c1)C1C=CCC1C(c1cccnc1)N2 (stereo not drawn) (library stock concentration (final ~1000-fold dilution): 10 mM),NF-kB SEAP reporter activity,RAW-Dual [2]; agonist: LPS (TLR4) 0.1 ug/mL,0.27
same,NF-kB SEAP reporter activity,RAW-Dual [2]; [6],0.315
same,NF-kB SEAP reporter activity,RAW-Dual [2]; [7],0.139
same,NF-kB SEAP reporter activity,RAW-Dual [2]; [8],0.262
Fc1cc(F)c2c(c1)C1C=CCC1C(c1cccnc1)N2 (stereo not drawn),NF-kB SEAP reporter activity,RAW-Dual [1]; [4],1.14
same,NF-kB SEAP reporter activity,RAW-Dual [1]; [5],0.458
CN(CCC(N)CC(=O)NC1C=CC(n2ccc(N)nc2=O)OC1C(=O)O)C(=N)N.Cl (stereo not drawn) (library stock concentration (final ~1000-fold dilution): 10 mM water),NF-kB SEAP reporter activity,RAW-Dual [2]; agonist: LPS (TLR4) 0.1 ug/mL,1
same,NF-kB SEAP reporter activity,RAW-Dual [2]; [6],1.42
same,NF-kB SEAP reporter activity,RAW-Dual [2]; [7],0.372
same,NF-kB SEAP reporter activity,RAW-Dual [2]; [8],0.781
CN(CCC(N)CC(=O)NC1C=CC(n2ccc(N)nc2=O)OC1C(=O)O)C(=N)N.Cl (stereo not drawn),NF-kB SEAP reporter activity,"RAW-Dual [1]; library stock concentration (final ~1000-fold dilution): 10 mM water, cytotoxicity flag (confluency mask): not cytotoxic, agonist: Imiquimod (TLR7) […]",1.28
same,NF-kB SEAP reporter activity,"RAW-Dual [1]; library stock concentration (final ~1000-fold dilution): 10 mM water, cytotoxicity flag (confluency mask): not cytotoxic, agonist: MPLA (TLR4) […]",1.26
CC12CCC3C(CC=C4CC(O)CCC43C)C1CCC2=O (stereo not drawn) (library stock concentration (final ~1000-fold dilution): 10 mM),NF-kB SEAP reporter activity,RAW-Dual [2]; agonist: LPS (TLR4) 0.1 ug/mL,0.994
same,NF-kB SEAP reporter activity,RAW-Dual [2]; [6],1.05
same,NF-kB SEAP reporter activity,RAW-Dual [2]; [7],1.22
same,NF-kB SEAP reporter activity,RAW-Dual [2]; [8],1.44
CC12CCC3C(CC=C4CC(O)CCC43C)C1CCC2=O (stereo not drawn),NF-kB SEAP reporter activity,RAW-Dual [1]; [4],1.13
same,NF-kB SEAP reporter activity,RAW-Dual [1]; [5],1.18
COC(=O)CC(O)(CCC(C)(C)O)C(=O)OC1C(OC)=CC23CCCN2CCc2cc4c(cc2C13)OCO4 (stereo not drawn),NF-kB SEAP reporter activity,"RAW-Dual [1]; library stock concentration (final ~1000-fold dilution): 10 mM, cytotoxicity flag (confluency mask): cytotoxic (confluency <70% of control), agonist: Imiquimod (TLR7) […]",0.135
same,NF-kB SEAP reporter activity,"RAW-Dual [1]; library stock concentration (final ~1000-fold dilution): 10 mM, cytotoxicity flag (confluency mask): cytotoxic (confluency <70% of control), agonist: MPLA (TLR4) […]",0.255
COC(=O)CC(O)(CCC(C)(C)O)C(=O)OC1C(OC)=CC23CCCN2CCc2cc4c(cc2C13)OCO4 (stereo not drawn) (library stock concentration (final ~1000-fold dilution): 10 mM),NF-kB SEAP reporter activity,RAW-Dual [3]; agonist: LPS (TLR4) 0.1 ug/mL,0.359
same,NF-kB SEAP reporter activity,RAW-Dual [3]; [6],0.169
same,NF-kB SEAP reporter activity,RAW-Dual [3]; [7],0.0733
same,NF-kB SEAP reporter activity,RAW-Dual [3]; [8],0.136
